Reference: PubChem BioAssay (Tox21)
Several values for one entry are separate records, joined by “and”; a condition that tells them apart may be missing. Equal values may be shown once. Inconclusive means that the source gave no clear call. Such entries were picked first, then a sample of the others. For some assays here: Potencies beside an inconclusive call are fits to weak or partial responses and may not hold up. A structure can be active in one record and inactive in another. Activity calls are given as the source filed them. Unless noted, the call rests on the fitted dose curve; in most records, active means well fitted curve in the direction sought with a large enough effect in the repeat runs; inconclusive means weak or mixed curves; inactive means no such curve, though single readings can be large; an effect the other way counts as inactive or inconclusive.

Legend:
[1] = qHTS assay for identifying genotoxic compounds that show differential cytotoxicity against isogenic chicken DT40 cell lines with known DNA damage response pathways - Rev3 mutant cell line (AID 743014); settings: chicken DT40 Rev3-/- viability, CellTiter-Glo, 40 h; activity, negative = cytotoxicity: at 68.4 µM (top of the series) unless noted; further: nearly all actives have a fitted effect of over 55% in size; on activity, negative = cytotoxicity: on the % scale 0 is the no-effect control and ±100 the full control effect
[2] = qHTS assay to identify small molecule antagonists of the androgen receptor (AR) signaling pathway - cell viability counter screen (AID 743033; further: nearly all actives have a fitted effect of over 45% in size); settings: AR-bla HEK293 viability, CellTiter-Glo luminescence, 16 h; series mostly up to 58.5 µM
[3] = molecular target: Androgen receptor (Homo sapiens) (UniProt P10275); assay: qHTS assay to identify small molecule antagonists of the androgen receptor (AR) signaling pathway (AID 743035; active means well fitted inhibition curve with a large enough effect in the signal ratio in the repeat runs, not every such curve was filed as active; inconclusive means weak or mixed curves, or effect the other way; inactive means no such curve, though single readings can be large or run the other way; the % refers to the signal ratio; on activity change, negative = inhibition: on the % scale 0 is the no-effect control and ±100 the full control effect); settings: HEK293 AR-UAS-bla, R1881-stimulated, beta-lactamase FRET, 16 h; activity change, negative = inhibition: at 58.5 µM (top of the series) unless noted
Summary of the method: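 Reporter HEK293 cells were exposed to compounds and R1881 overnight (16 h, 37C); beta-lactamase activity was then quantified by FRET fluorescence.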

[4] = molecular target: Androgen receptor (Homo sapiens) (UniProt P10275); assay: qHTS assay to identify small molecule agonists of the androgen receptor (AR) signaling pathway (AID 743036; active means well fitted activation curve with a large enough effect in the signal ratio in the repeat runs, with a control signal flat, not every such curve was filed as active; inconclusive means weak or mixed curves, or effect the other way; inactive means no such curve, though single readings can be large or run the other way; the % refers to the signal ratio); settings: HEK293 AR-UAS-bla GripTite, beta-lactamase FRET ratio, 16 h; activation: at 62.4 µM (top of the series) unless noted
Summary of the method: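 HEK293 cells stably carrying a UAS-driven beta-lactamase reporter (GeneBLAzer AR-UAS-bla-GripTite) were plated at 2,000 cells/well, rested 4 h at 37C, then exposed to compounds in DMSO for 16 h. LiveBLAzer B/G FRET substrate was added for 2 h at room temperature; fluorescence read.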

[5] = qHTS assay to identify small molecule antagonists of the androgen receptor (AR) signaling pathway using the MDA cell line - cell viability counter screen (AID 743041; further: nearly all actives have a fitted effect of over 45% in size; on viability change, negative = cytotoxic: on the % scale 0 is the no-effect control and ±100 the full control effect); settings: MDA-kb2 viability, CellTiter-Fluor, 16 h, cells co-treated with R1881 androgen agonist; viability change, negative = cytotoxic: at 70.3 µM (top of the series) unless noted
Summary of the method: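 Cytotoxicity counter screen: MDA-kb2 AR-luc cells, compound + R1881, 16 h, 37C, 0% CO2; CellTiter-Fluor added at 15.5 h, fluorescence read after 30 min.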

[6] = molecular target: Androgen receptor (Homo sapiens) (UniProt P10275); assay: qHTS assay to identify small molecule antagonists of the androgen receptor (AR) signaling pathway using the MDA cell line (AID 743042; further: nearly all actives have a fitted effect of over 55% in size); settings: MDA-kb2 AR-luc, MMTV luciferase, R1881 antagonist, 16 h; series mostly up to 70.3 µM
Summary of the method: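 MDA-kb2 breast carcinoma cells carrying MMTV-luciferase (AR/GR responsive) were co-treated with compounds and the agonist R1881 for 16 h at 37C. Inhibition read as ONE-Glo luminescence; CellTiter-Fluor fluorescence measured in parallel for cytotoxicity.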

[7] = qHTS assay to identify small molecule antagonists of the thyroid receptor (TR) signaling pathway - cell viability counter screen (AID 743064); settings: GH3.TRE-Luc viability, CellTiter-Fluor, 24 h; activity change, negative = cytotoxic: at 70.3 µM (top of the series) unless noted; further: nearly all actives have a fitted effect of over 50% in size; on activity change, negative = cytotoxic: on the % scale 0 is the no-effect control and ±100 the full control effect
Summary of the method: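 GH3.TRE-Luc rat pituitary cells carrying a TRE-luciferase reporter were treated with compound plus 1 nM T3 (final) for 23.5 h at 37 °C. Viability was then read in the same wells by CellTiter-Fluor fluorescence after a further 30 min.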

[8] = qHTS assay to identify small molecule antagonists of the thyroid receptor (TR) signaling pathway (AID 743065); settings: GH3.TRE-Luc, T3-stimulated luciferase inhibition, 23.5 h; series mostly up to 70.3 µM; further: nearly all actives have a fitted effect of over 55% in size
Summary of the method: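 GH3.TRE-Luc rat pituitary cells (two TREs driving luciferase) were dosed with compound, then stimulated with 1 nM T3 (final) for 23.5 h at 37 C. ONE-Glo luminescence was the read-out, with CellTiter-Fluor fluorescence as the cytotoxicity counter-screen.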
Potency means the concentration at half of the fitted maximal effect; tags describe the fitted curve by direction and shape or compound fluorescence and quenching.

Sequence of UniProt P10275 (P10275 whole entry, looked up): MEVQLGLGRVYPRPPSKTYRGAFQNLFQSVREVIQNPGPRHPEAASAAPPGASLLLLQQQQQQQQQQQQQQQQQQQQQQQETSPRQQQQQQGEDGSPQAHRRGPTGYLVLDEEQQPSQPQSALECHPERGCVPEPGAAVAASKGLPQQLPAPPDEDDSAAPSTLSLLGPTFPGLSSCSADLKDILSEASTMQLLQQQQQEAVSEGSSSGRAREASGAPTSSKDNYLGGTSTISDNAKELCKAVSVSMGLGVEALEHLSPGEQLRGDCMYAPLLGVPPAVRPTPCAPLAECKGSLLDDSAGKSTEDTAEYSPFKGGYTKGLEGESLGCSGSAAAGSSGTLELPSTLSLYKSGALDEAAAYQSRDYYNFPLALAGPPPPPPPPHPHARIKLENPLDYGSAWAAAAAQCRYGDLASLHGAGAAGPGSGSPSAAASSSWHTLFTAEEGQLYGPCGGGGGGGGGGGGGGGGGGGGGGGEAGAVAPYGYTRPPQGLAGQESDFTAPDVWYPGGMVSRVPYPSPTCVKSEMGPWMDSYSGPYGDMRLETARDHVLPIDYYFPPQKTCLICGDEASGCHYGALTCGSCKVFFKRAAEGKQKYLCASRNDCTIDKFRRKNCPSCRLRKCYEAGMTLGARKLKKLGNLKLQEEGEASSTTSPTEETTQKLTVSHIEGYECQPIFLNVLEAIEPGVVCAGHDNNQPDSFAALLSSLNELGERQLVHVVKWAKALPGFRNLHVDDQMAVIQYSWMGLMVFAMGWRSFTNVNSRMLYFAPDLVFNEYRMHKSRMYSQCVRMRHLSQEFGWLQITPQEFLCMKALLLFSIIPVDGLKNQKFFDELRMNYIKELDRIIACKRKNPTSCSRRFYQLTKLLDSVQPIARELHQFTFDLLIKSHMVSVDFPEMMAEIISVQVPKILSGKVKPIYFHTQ

**Q.** Which Potency [1] does the source give for `Cc1c(C)c2c(c(C)c1O)CCC(C)(COc1ccc(CC3SC(=O)NC3=O)cc1)O2` (stereo not given) here?
**A.** active: 26.6 µM and active: 15.4 µM

**Q.** What about the Potency [2] of the same compound?
**A.** active: 24.5 µM

**Q.** What about the Potency [3] of the same compound?
**A.** inconclusive: 19.5 µM [rising, partial curve, poor fit]

**Q.** And the activity change, negative = inhibition [3]?
**A.** inconclusive: -38.1%

**Q.** And the Potency [4]?
**A.** inconclusive: 5.35 µM [rising, full curve, poor fit] and inconclusive: 3.09 µM [rising, full curve, poor fit]

**Q.** What about the Potency [5] of the same compound?
**A.** inconclusive: 68.6 µM [cytotoxic]

**Q.** And the Potency [6]?
**A.** inconclusive: 33.5 µM [inhibitor, single point] and inconclusive: 68.6 µM [inhibitor, single point]

**Q.** And the Potency [7]?
**A.** inconclusive: 29.8 µM [cytotoxic, partial curve] and inconclusive: 68.6 µM [cytotoxic, single point]

**Q.** For `CCCCCCCC/C=C\CCCCCCCCOCCO`, which Potency [1] is on record?
**A.** active: 5.62 µM

**Q.** And the Potency [2]?
**A.** active: 22.6 µM

**Q.** What about the Potency [5] of the same compound?
**A.** active: 14.1 µM

**Q.** Which results are given for `CC(C)c1cccc(C(C)C)c1N1C(=O)c2ccc(O)cc2C1=O`?
**A.** Potency [1]: active: 7.7 µM; Potency [2]: active: 38.9 µM; Potency [7]: inconclusive: 61.1 µM [rising, partial curve]

**Q.** With `CCCCCCCCOC(=O)c1cc(O)c(O)c(O)c1` as the compound, how does the Potency [1] read?
**A.** active: 1.37 µM

**Q.** And the Potency [2]?
**A.** inconclusive: 49 µM [cytotoxic, partial curve]

**Q.** What about the Potency [5] of the same compound?
**A.** active: 48.6 µM

**Q.** What about the Potency [7] of the same compound?
**A.** active: 2.17 µM

**Q.** What about the Potency [8] of the same compound?
**A.** active: 1.93 µM

**Q.** Which results are given for `CN[C@H]1CC[C@@H](c2ccc(Cl)c(Cl)c2)c2ccc(S(N)(=O)=O)cc21`?
**A.** Potency [1]: active: 13.7 µM; Potency [2]: active: 54.9 µM; Potency [3]: active: 43.6 µM; Potency [5]: inconclusive: 10.9 µM [rising, single point]; Potency [7]: active: 8.63 µM

**Q.** For `CC=O`, which Potency [1] is on record?
**A.** active: 0.057 µM

**Q.** What about the Potency [2] of the same compound?
**A.** active: 22.9 µM

**Q.** And the Potency [5]?
**A.** active: 63.9 µM

**Q.** Which results are given for `N#Cc1nc(Cl)c(Cl)c(Cl)c1Cl`?
**A.** Potency [1]: active: 1.72 µM; Potency [2]: active: 9.77 µM; Potency [3]: inconclusive: 4.36 µM [rising, full curve]; Potency [4]: inconclusive: 12.3 µM [fluorescent, single point]

**Q.** For `CCCCCCCCCC[N+](C)(CCCCCCCCCC)CCC[Si](OC)(OC)OC`, which Potency [1] is on record?
**A.** active: 7.7 µM

**Q.** And the Potency [2]?
**A.** active: 43.6 µM

**Q.** And the Potency [5]?
**A.** inconclusive: 2.43 µM [rising, full curve, poor fit]

**Q.** What about the Potency [7] of the same compound?
**A.** active: 21.7 µM

**Q.** Which results are given for `CCCCCCC(C)Nc1ccc(Nc2ccccc2)cc1` (stereo not given)?
**A.** Potency [1]: active: 15.4 µM; Potency [2]: inconclusive: 49 µM [cytotoxic, partial curve]; Potency [5]: inactive

**Q.** With `CCCCCCCC/C=C\CCCCCCCC(=O)N(CCO)CCO` as the compound, how does the Potency [1] read?
**A.** active: 17.2 µM

**Q.** What about the Potency [2] of the same compound?
**A.** inconclusive: 13.8 µM [cytotoxic, full curve]

**Q.** And the Potency [5]?
**A.** active: 43.1 µM

**Q.** With `CCCCCCCCCCCCCCCCCC[N+](C)(C)C` as the compound, how does the Potency [1] read?
**A.** active: 1.37 µM

**Q.** What about the Potency [2] of the same compound?
**A.** active: 43.8 µM

**Q.** And the Potency [3]?
**A.** inconclusive: 55.1 µM

**Q.** And the Potency [4]?
**A.** inconclusive: 61.9 µM [cytotoxic, single point]

**Q.** And the Potency [7]?
**A.** active: 12.2 µM

**Q.** What does the source list for `CCCCCCCCCCCCCCCCCC[N+](C)(C)Cc1ccccc1`?
**A.** Potency [1]: active: 0.777 µM; Potency [2]: active: 19.7 µM; Potency [3]: inconclusive: 62.3 µM [falling, single point]; Potency [4]: inconclusive: 35 µM [cytotoxic, partial curve]; Potency [7]: active: 11 µM

**Q.** With `C[C@@H](NCCCc1cccc(C(F)(F)F)c1)c1cccc2ccccc12` as the compound, how does the Potency [1] read?
**A.** active: 5.96 µM

**Q.** What about the Potency [2] of the same compound?
**A.** active: 19 µM

**Q.** And the Potency [3]?
**A.** inconclusive: 30.1 µM [falling, single point]

**Q.** What about the Potency [4] of the same compound?
**A.** inconclusive: 26.8 µM

**Q.** And the Potency [6]?
**A.** inconclusive: 0.8 nM [inhibitor]

**Q.** And the Potency [7]?
**A.** active: 7.5 µM

**Q.** What does the source list for `Oc1ccc(Cl)cc1Cc1cc(Cl)ccc1O`?
**A.** Potency [1]: active: 16.8 µM and active: 31.2 µM and active: 10.9 µM; Potency [2]: inconclusive: 26.8 µM [cytotoxic, single point] and active: 19.8 µM and active: 11 µM; Potency [4]: inconclusive: 7.9 µM [rising, partial curve, poor fit]; Potency [5]: inconclusive: 78.4 µM [cytotoxic, single point] and inconclusive: 68.6 µM [cytotoxic, single point]; Potency [6]: inconclusive: 33500 nM [inhibitor, single point]

**Q.** With `Cn1cnc2c1c(=O)[nH]c(=O)n2C` as the compound, how does the Potency [1] read?
**A.** inactive

**Q.** What about the Potency [2] of the same compound?
**A.** inconclusive: 0.239 µM [cytotoxic, full curve, poor fit]

**Q.** And the Potency [7]?
**A.** inactive
